Data on 102 sequences can be found in a collection of fitness landscapes (doi:10.1038/s41467-024-54723-y).

In all, about 18,000 sequences were measured (“TetR repression strength (sort-seq, GFP reporter)”: median about 0.23, highest 2% from about 0.68 on). This is one part of the list.

Sequence of UniProt P04483 (P04483 whole entry): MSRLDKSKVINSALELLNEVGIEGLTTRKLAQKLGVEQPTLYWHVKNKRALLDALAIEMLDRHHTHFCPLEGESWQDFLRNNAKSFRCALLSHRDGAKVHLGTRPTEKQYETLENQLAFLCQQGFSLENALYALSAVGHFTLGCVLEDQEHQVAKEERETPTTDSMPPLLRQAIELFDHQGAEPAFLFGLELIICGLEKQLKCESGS

The target of this assay is TetR (class B, Tn10) (UniProt P04483). In words: TetR repression strength (sort-seq, GFP reporter) (relative to tetO2 = 1); higher = stronger repression. The conditions noted are these: E. coli. In short, it runs like this:
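Repression strength is the top bin index plus one minus the read-weighted mean bin, relative to the unaltered operator's value. A low-copy library in E. coli SIG10-MAX randomized eight operator positions between a constitutive promoter and sfGFP, with TetR expressed constitutively; cells grew 5 h at 37 °C in LB with 50 µg/mL chloramphenicol and 10^6 were FACS-sorted into 13 bins that were each Illumina-sequenced. Three independent transformations were averaged, keeping only members with ≥30 reads in all replicates and CV ≤0.5.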
Regarding TCCCGGTTAGTTTCCGAGA, the TetR repression strength worked out at 0.284.

With TCCCAGTGAGTGTGTGAGA, the TetR repression strength was 0.118.

Sequence TCCCTTTTAGTGATAGAGA gave a TetR repression strength of 0.512.

With TCCCAGGAAGTTATCGAGA, the TetR repression strength was 0.254.

TCCCTGCGAGTGCACGAGA had a TetR repression strength of 0.314.

Consider TCCCAGGGAGTAGCGGAGA, for which the TetR repression strength is 0.159.

As to TCCCGTGTAGTAAAGGAGA, the TetR repression strength was 0.104.

The sequence TCCCAGGGAGTGCTCGAGA came in with a TetR repression strength of 0.187.

Consider TCCCGTTCAGTCGGAGAGA, for which the TetR repression strength amounted to 0.123.

Sequence TCCCAGTGAGTCTTTGAGA showed a TetR repression strength of 0.339.

For TCCCTTGAAGTTGGGGAGA, the TetR repression strength was 0.143.

In the case of TCCCAATTAGTGGGAGAGA, the TetR repression strength was determined as 0.147.

In turn, TCCCGGGCAGTCGTAGAGA registered a TetR repression strength of 0.285.

In turn, TCCCAAACAGTTACGGAGA displayed a TetR repression strength of 0.149.

In turn, TCCCGGTAAGTTCAGGAGA came in with a TetR repression strength of 0.3.

TCCCGACGAGTTGCTGAGA yielded a TetR repression strength of 0.295.

TCCCCTGCAGTCGACGAGA: the TetR repression strength amounted to 0.14.

Regarding TCCCTTGTAGTGCATGAGA, the TetR repression strength amounted to 0.283.

As for TCCCAAAGAGTGGCGGAGA, the TetR repression strength was determined as 0.258.

As to TCCCTTGTAGTGGTTGAGA, the TetR repression strength was 0.221.

TCCCATGCAGTCCTGGAGA came in with a TetR repression strength of 0.358.

TCCCGCACAGTATTAGAGA gave a TetR repression strength of 0.422.

For TCCCCAAGAGTGTGGGAGA, the TetR repression strength turned out to be 0.181.

TCCCGTTCAGTGAGTGAGA registered a TetR repression strength of 0.604.

For the sequence TCCCTCTAAGTGCAGGAGA, the TetR repression strength was found to be 0.288.

Take TCCCCGAAAGTGGTCGAGA: the TetR repression strength turned out to be 0.0236.

Turning to TCCCAGGTAGTGGAGGAGA, the TetR repression strength came out at 0.104.

For the sequence TCCCATACAGTGGCCGAGA, the TetR repression strength turned out to be 0.167.

Turning to TCCCATTCAGTCATGGAGA, the TetR repression strength is 0.279.

TCCCTATCAGTGCACGAGA gave a TetR repression strength of 0.569.

In turn, TCCCGCCAAGTGTAGGAGA had a TetR repression strength of 0.303.

For TCCCAGCTAGTGGGCGAGA, the TetR repression strength came to 0.161.

On to TCCCCGTGAGTTAGTGAGA, for which the TetR repression strength worked out at 0.0305.

As to TCCCGAACAGTATTTGAGA, the TetR repression strength was 0.259.

Consider TCCCTCGCAGTGGATGAGA, for which the TetR repression strength was 0.323.

For TCCCTATAAGTGATAGAGA, the TetR repression strength was found to be 0.994.

As for TCCCGAGTAGTACGGGAGA, the TetR repression strength was 0.301.

As for TCCCGTCCAGTTCGCGAGA, the TetR repression strength stood at 0.21.

Sequence TCCCAGTGAGTGGCGGAGA came in with a TetR repression strength of 0.264.

TCCCGATGAGTTTTTGAGA returned a TetR repression strength of 0.174.

The sequence TCCCATTCAGTTGACGAGA yielded a TetR repression strength of 0.141.

In the case of TCCCTCAAAGTGGCGGAGA, the TetR repression strength was determined as 0.157.

In the case of TCCCGATTAGTAGAAGAGA, the TetR repression strength was 0.187.

In turn, TCCCGTTAAGTGTGGGAGA displayed a TetR repression strength of 0.237.

With TCCCGCACAGTGCTTGAGA, the TetR repression strength was 0.271.

TCCCGCCAAGTCTTGGAGA registered a TetR repression strength of 0.182.

For TCCCTTTGAGTAGATGAGA, the TetR repression strength is 0.173.

Sequence TCCCTAGCAGTTGCGGAGA displayed a TetR repression strength of 0.38.

Consider TCCCAGTTAGTGTTTGAGA, for which the TetR repression strength came out at 0.366.

TCCCTCTCAGTGGTTGAGA: the TetR repression strength is 0.198.

The sequence TCCCGCAAAGTAGGGGAGA registered a TetR repression strength of 0.149.

For the sequence TCCCGGATAGTAAAGGAGA, the TetR repression strength was found to be 0.273.

TCCCGGCCAGTTAAGGAGA came in with a TetR repression strength of 0.274.

TCCCCCCAAGTAGACGAGA displayed a TetR repression strength of 0.233.

Regarding TCCCGCTCAGTAGTCGAGA, the TetR repression strength is 0.246.

TCCCTTTAAGTAGCCGAGA returned a TetR repression strength of 0.238.

On to TCCCGGCGAGTTAGAGAGA, for which the TetR repression strength came to 0.12.

Consider TCCCTTTTAGTCAGGGAGA, for which the TetR repression strength was 0.137.

On to TCCCCGCCAGTTCGGGAGA, for which the TetR repression strength amounted to 0.19.

TCCCGCGGAGTTGGCGAGA gave a TetR repression strength of 0.165.

With TCCCAGTCAGTATTTGAGA, the TetR repression strength was 0.165.

In turn, TCCCAATGAGTGCGCGAGA yielded a TetR repression strength of 0.248.

Turning to TCCCGTTAAGTGACGGAGA, the TetR repression strength was 0.132.

Sequence TCCCTTTCAGTGATAGAGA showed a TetR repression strength of 0.785.

As to TCCCGAGTAGTAATCGAGA, the TetR repression strength was 0.232.

On to TCCCCATGAGTGGGTGAGA, for which the TetR repression strength was determined as 0.06.

TCCCCTGAAGTAGTCGAGA yielded a TetR repression strength of 0.428.

As for TCCCCGCAAGTATGAGAGA, the TetR repression strength was 0.321.

TCCCTTCGAGTCGTGGAGA came in with a TetR repression strength of 0.293.

TCCCTTGTAGTCAAAGAGA came in with a TetR repression strength of 0.1.

Turning to TCCCTGTAAGTTATGGAGA, the TetR repression strength is 0.223.

Take TCCCTGTTAGTGGGTGAGA: the TetR repression strength stood at 0.102.

As to TCCCGTTTAGTAGCAGAGA, the TetR repression strength amounted to 0.248.

The sequence TCCCCCCCAGTTGTGGAGA returned a TetR repression strength of 0.523.

On to TCCCTGTCAGTAGCCGAGA, for which the TetR repression strength was determined as 0.255.

TCCCTAGTAGTGGTAGAGA registered a TetR repression strength of 0.21.

As to TCCCACCTAGTCGCCGAGA, the TetR repression strength worked out at 0.278.

Take TCCCTAAGAGTTACTGAGA: the TetR repression strength amounted to 0.3.

Sequence TCCCCTGTAGTGCGTGAGA returned a TetR repression strength of 0.126.

With TCCCGGGGAGTCCAGGAGA, the TetR repression strength was found to be 0.247.

TCCCCCAAAGTAGGTGAGA came in with a TetR repression strength of 0.0427.

In turn, TCCCCATAAGTTCTGGAGA came in with a TetR repression strength of 0.224.

Consider TCCCCTGGAGTGGGGGAGA, for which the TetR repression strength was 0.217.

Sequence TCCCGGGAAGTCGTGGAGA returned a TetR repression strength of 0.256.

Sequence TCCCACAGAGTTATGGAGA came in with a TetR repression strength of 0.179.

Regarding TCCCCTCTAGTGACAGAGA, the TetR repression strength amounted to 0.243.

Take TCCCAGCTAGTTTCTGAGA: the TetR repression strength turned out to be 0.207.

Sequence TCCCGAGCAGTTAGCGAGA yielded a TetR repression strength of 0.0122.

TCCCTGTCAGTGAGCGAGA registered a TetR repression strength of 0.341.

As to TCCCCGCCAGTATGTGAGA, the TetR repression strength turned out to be 0.278.

For TCCCATTCAGTGGCTGAGA, the TetR repression strength amounted to 0.44.

In turn, TCCCCGCGAGTATAGGAGA returned a TetR repression strength of 0.329.

As for TCCCGCAGAGTTAGGGAGA, the TetR repression strength is 0.187.

The sequence TCCCTACTAGTGGTTGAGA came in with a TetR repression strength of 0.298.

Take TCCCTCTGAGTTATTGAGA: the TetR repression strength is 0.364.

As to TCCCGGTAAGTCCCGGAGA, the TetR repression strength was found to be 0.00576.

Consider TCCCCTTCAGTGCAGGAGA, for which the TetR repression strength worked out at 0.207.

TCCCGATAAGTCATTGAGA came in with a TetR repression strength of 0.204.

Take TCCCATAGAGTGCGGGAGA: the TetR repression strength stood at 0.0603.

TCCCATATAGTAAGTGAGA gave a TetR repression strength of 0.

TCCCATACAGTTTCAGAGA displayed a TetR repression strength of 0.263.

TCCCTGTCAGTATTTGAGA had a TetR repression strength of 0.378.
